Over roughly 33,000 sequences, “E-score (-0.5 to 0.5)” has its median near -0.054; the highest 2% begin near 0.39. This is one part of the list.
Biological target: Ylr278c (UniProt Q05854)
Experiment: PBM E-score (8-mer binding enrichment) (E-score (-0.5 to 0.5)); higher = stronger / more preferred TF binding; most listed sequences are background and not binding sites
Settings: protein concentration: 200 nM; construct: GST-DNA-binding domain
How it was run: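 Bound GST-tagged yeast transcription factors, applied at about 100-200 nM to double-stranded universal all-10-mer Agilent arrays, were detected with fluorescent anti-GST. Scans were normalised with masliner. A modified Wilcoxon-Mann-Whitney statistic, the E-score, was assigned to each ungapped eight-base word pooled with its reverse complement by the Universal PBM Analysis Suite.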

Sequence	PBM E-score
AGGCTCGC	0.0507
CGAAGGAA	-0.198
ATCGGAGC	0.458
ATAAGGGA	-0.139
AGACGTGA	-0.109
CGTCATGC	-0.0987
ATCAATGG	0.00091
AACTGAGC	-0.00353
CCGATAGG	0.231
AGACATGG	-0.179
GTTTGTGA	-0.19
AGTTGATC	-0.0079
ACTGCCAA	-0.045
AGGAGAAT	0.0744
AGAATATC	0.105
ACGAACGA	-0.127
AAGGTCTC	-0.206
AACCCCTG	-0.0141
TTCGCAAA	0.172
GCAACGAA	-0.0933
ATCTAAAC	0.0895
ATGACGTC	0.114
AATTGATG	0.0757
AACAGGTT	-0.167
AGTTCATG	0.135

Sequence	PBM E-score
CAATCAGC	-0.153
CATGCGCC	0.166
CCCAGCGC	0.0192
AATTGCAA	0.0181
AGGCCGTG	0.142
AAGTAATT	0.0591
ATTATTTC	0.175
CCTCCCAG	-0.216
CACAACGC	0.077
GAATGCGA	0.103
AGTAGCTA	0.0312
CTATCCAG	-0.0623
AGCATACA	-0.0973
GTTTCGGA	0.4
GGTAGCAC	-0.114
CGGTGGAG	0.118
CTCAAGCC	0.0394
GAGAGAGC	-0.0857
CGGCCGAA	0.318
AGCCTTAT	-0.0811
GGGATCAA	-0.0692
GACGGACA	0.328
CGCCATGA	-0.0784
TACTGTAA	-0.0262
ATTGTCTC	-0.0615

Sequence	PBM E-score
TGAAACCA	0.0471
AGTAGGCG	-0.0103
CTATAGTA	0.0716
CAACTCGA	-0.182
ACGACTGA	-0.157
ATTTCAAA	-0.0254
CACGCGCA	0.047
AATAGCTG	-0.125
GGTGGGAA	0.016
CCTCCGCC	0.413
ATCCTTGA	-0.109
CGAGATGC	-0.0147
GGGACCCA	0.0522
ACCCTCAA	-0.0838
AATTTCCG	0.448
ATATCAGG	-0.12
TAGAAAGA	-0.131
AATAGGAG	-0.198
GACGCAGC	-0.258
AGAAGCGC	0.11
AATTGAAG	0.0497
ACTAGGAG	-0.0249
ACTCTTAC	-0.123
AAGTGTAG	-0.169
CGGTCCGA	0.455

Sequence	PBM E-score
ACAAGCAC	-0.101
GTGTACGA	-0.00044
AAAAAGTG	-0.0929
CCGGTCGC	0.236
GCCCAGAC	-0.159
CCTGAAAA	0.021
ATAGTGAT	-0.203
AATAAGTA	-0.0932
AGATTTGA	-0.129
GCGCCCTA	-0.0209
ATCTTTCA	0.0509
AGTCTTGC	-0.265
AGTCCAAC	-0.104
GGGGTTCA	0.0957
AAGCCCTT	-0.267
CATACCCA	-0.159
AGGGGACG	-0.162
CTGGTTCA	-0.23
CGACACTA	0.102
AGAACAAC	0.0283
CATTTATA	-0.0229
GCCGTGGA	0.15
ATAACAGA	-0.124
ACCGACTG	0.0883
AACAAAAC	0.0279

Sequence	PBM E-score
AGGGTTGA	-0.124
AAATCCTT	-0.061
CACCGGTC	0.183
CAGTAGGA	-0.168
TACCGGCA	0.309
AGACCGGG	0.304
CTCGAATC	-0.233
CCCGGGCA	0.331
AGCGCTAG	-0.126
CTACCTCA	0.00428
CATGTCCG	0.384
ACGCAAGG	-0.274
CACACGCG	0.0929
CCGGACGA	0.406
CCTTCAGA	-0.282
GAGATTCC	0.272
AATCTTCC	0.167
ATGTTAGG	-0.23
AGAAGTCT	-0.211
CACAAACA	-0.103
CTACATTA	-0.193
AGAACACC	0.015
CCATTAGA	-0.0631
ATCTAATG	-0.0201
ACACAAGA	-0.0979

Sequence	PBM E-score
ATTACGAC	-0.0801
GAGTCCCA	0.0804
CCCGTTCC	0.162
AAACTTAA	-0.0688
AGTTAGGG	-0.149
CAACATAC	-0.0104
GAGTGCGA	0.00334
CTTAAGCC	0.0779
ACTTCACA	-0.208
CCCAACGC	-0.0231
ACAAGAAT	-0.0858
CAGAGCAG	-0.245
ACGGCCCG	0.115
AATTGTAC	-0.0759
ACTCTCTC	0.0619
ATGCGTTG	-0.0486
AGTATACA	-0.144
ACTGTTTG	-0.251
GACTTAAA	-0.0827
CTGGGAAC	-0.0778
ACTTTGGA	-0.236
GGTTTAAC	0.067
GCATCCAC	-0.0261
TACAACAA	-0.0845
CGCTGAGA	-0.0287

Sequence	PBM E-score
TGCGTACA	-0.265
ACTGTCCG	0.31
CTGTGGTA	-0.222
AACCTTAC	-0.0631
GCCAGAAA	-0.00062
ACACTTCT	-0.105
AGGGCGGC	0.078
ATTGATAG	-0.132
CCATATAC	-0.00364
CAGCAGTC	-0.0921
ATATAACA	-0.033
CTATGAAA	-0.141
GACACCTA	-0.0802
GTTCATAA	-0.217
GTCTGTTA	-0.13
AATCTACC	0.0783
ATCGAGAC	-0.0882
AGCCATAT	-0.111
ATCGTGCA	-0.126
CAGGTTCA	-0.299
CTGGACTA	-0.129
CCAAGGAG	-0.0113
